Test results published in PubChem BioAssay (NCI).
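The compound was tested at five concentrations on cells cultured in 96-well plates, with a 48-hour exposure period. GI50: concentration for 50% inhibition of growth.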 The source holds more than one record for some entries. They are shown here; other results are not. There may be further records. Values that stand side by side repeat one measurement across runs, samples, wells, individuals or studies. A tag in brackets gives the origin of a value. Letters hold for one entry only.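 TGI marks complete inhibition of growth.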

Test system: PC-3 prostate
Experiment: inhibition of tumour cell growth, NCI panel, 48 h

O/N=C/C1C(OCc2ccccc2)C(OCc2ccccc2)C(OCc2ccccc2)CN1Cc1ccccc1 (configuration not stated) was tested, and the GI50 was 6.9 µM [sample A, 1 test] and 12.4 nM [sample B, 1 test] and the TGI was 49.9 µM [sample A, 1 test] and 4.14 µM [sample B, 1 test].
